{
  "source": "PubChem BioAssay AID504845",
  "about": "(National Center for Advancing Translational Sciences (NCATS), 2011)",
  "note": "About 150 (0.038%) of roughly 390,000 compounds were called active. This list was built around the results that the source calls inconclusive (neither active nor inactive); the mix of calls is not that of the screen. Calls follow the shape of the dose curve; as a rule, active = well fitted inhibition curve with a large enough effect; inconclusive = small, poorly fitted or top-dose-only effect; inactive = no such curve, though single readings can be large or run the other way. Where the call is inconclusive, the potency comes from a doubtful curve fit. Potency is read from the fitted curve at half-maximal effect; tags tell the direction and shape of the fitted curve.",
  "data": [
    {"molecular_target": "Regulator of G-protein signaling 4 (Homo sapiens) (UniProt P49798)", "sequence (P49798 whole entry, looked up)": "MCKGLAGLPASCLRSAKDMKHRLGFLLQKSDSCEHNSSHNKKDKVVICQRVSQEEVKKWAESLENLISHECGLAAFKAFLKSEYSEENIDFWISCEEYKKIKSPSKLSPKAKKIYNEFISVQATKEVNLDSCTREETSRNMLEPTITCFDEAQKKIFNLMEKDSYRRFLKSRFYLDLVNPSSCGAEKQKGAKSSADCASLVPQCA", "experiment": "Inhibitors of Regulator of G Protein Signaling (RGS) 4: qHTS; also: nearly all actives have a fitted effect of over 75% in size", "conditions": "Transcreener GDP fluorescence polarization, RGS4-accelerated GTP hydrolysis; series mostly up to 114 µM", "summary_of_the_method": "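MLSMR compounds (23 nl, pin-transferred) preincubated 10 min at room temperature with a 500nM (2x) first reagent, then RGS4 at 900nM (2x) plus Transcreener GDP mix added; fluorescence polarization (620/688 nm) read before and after 90 min at 30 °C.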", "values": [
      {"smiles": "CC1(C)c2[nH]c3ccccc3c2C[C@@H]2C(=O)N(Cc3ccccc3)C(=O)N21", "Potency": "inactive"},
      {"smiles": "COc1ccc(-c2cc(-c3ccccc3)c(C#N)c(S(C)(=O)=O)n2)cc1", "Potency": "inconclusive: 70.8 µM [inhibitor, partial curve, poor fit]"},
      {"smiles": "Cc1ccc(S(=O)(=O)N2CC3(C)CN(S(=O)(=O)c4ccc(C)cc4)CC(C)(C2)C3)cc1", "Potency": "inactive"},
      {"smiles": "Cc1ccc(CN2CCN(CC(=O)NCc3ccc(Cl)cc3)C2=O)cc1", "Potency": "inconclusive: 70.8 µM [inhibitor, partial curve, poor fit]"},
      {"smiles": "N=c1n(CCN2CCCCC2)c2ccccc2n1CC(O)COc1ccc(Cl)cc1Cl", "note": "(stereo not given)", "Potency": "inactive"},
      {"smiles": "CCOc1cc(C2c3c(-c4ccccc4O)n[nH]c3C(=O)N2Cc2cccnc2)ccc1O", "note": "(stereo not given)", "Potency": "inactive"},
      {"smiles": "CC(=O)c1c(C)nc2ccc([N+](=O)[O-])cc2c1-c1ccccc1", "Potency": "inconclusive: 70.8 µM [inhibitor, partial curve, poor fit]"},
      {"smiles": "Cc1cccc(S(=O)(=O)c2c(N)n(/N=C/c3ccccc3)c3nc4ccccc4nc23)c1", "Potency": "inactive"},
      {"smiles": "O=C(O)c1ccc(NC(=S)NC(=O)c2ccc(-c3ccccc3)cc2)cc1", "Potency": "inconclusive: 50.1 µM [inhibitor, partial curve, poor fit]"},
      {"smiles": "CCCC1=NN(c2ccc([N+](=O)[O-])cc2)C(=O)/C1=C\\N(C)C", "Potency": "inconclusive: 10 µM [inhibitor, full curve, poor fit]"},
      {"smiles": "CCN(CC)CCOC(=O)c1ccc(NC(=O)CCCN2C(=O)S/C(=C/c3ccc(OC)cc3)C2=S)cc1", "Potency": "inconclusive: 44.7 µM [inhibitor, partial curve, poor fit]"},
      {"smiles": "O=C(O)CCSc1nnc(CNc2ccc(Cl)cc2)n1Cc1ccccc1", "Potency": "inactive"},
      {"smiles": "O=[N+]([O-])c1ccccc1-c1ccc(C(=S)N2CCN(c3ccccc3)CC2)o1", "Potency": "inconclusive: 89.1 µM [inhibitor, single point]"},
      {"smiles": "COc1ccc(-c2csc(N(CC3CCCO3)C(=O)c3cccs3)n2)cc1", "note": "(stereo not given)", "Potency": "inconclusive: 89.1 µM [inhibitor, single point]"},
      {"smiles": "COc1ccc(NC(=O)CSc2nc(-c3ccco3)nc3cc(=O)[nH]n23)cc1", "Potency": "inconclusive: 89.1 µM [inhibitor, single point]"},
      {"smiles": "COc1cccc(NC(=O)CN(C)C(=O)c2cc(-c3ccc(C)o3)nc3ccccc23)c1", "Potency": "inconclusive: 31.6 µM [inhibitor, full curve, poor fit]"},
      {"smiles": "CCOC(=O)C1=C(C)NC(=S)NC1c1ccco1", "note": "(stereo not given)", "Potency": "inconclusive: 50.1 µM [inhibitor, partial curve, poor fit]"},
      {"smiles": "CCC(=O)NC(=S)NNC(=O)c1ccc([N+](=O)[O-])cc1", "Potency": "inconclusive: 56.2 µM [inhibitor, partial curve, poor fit]"},
      {"smiles": "CC(C)N(CCC(=O)c1ccc2ccccc2c1)Cc1ccccc1", "Potency": "active: 0.67 µM"},
      {"smiles": "Cc1nc(CSc2nsc(/C=C/N(C)C)c2C#N)cs1", "Potency": "inconclusive: 50.1 µM [inhibitor, partial curve, poor fit]"},
      {"smiles": "CCCN(CC(=O)Nc1ccccc1C)C(=O)c1ccc(-c2ccc([N+](=O)[O-])cc2)o1", "Potency": "inconclusive: 44.7 µM [inhibitor, partial curve, poor fit]"},
      {"smiles": "O=C(CSc1nnc2ccc3ccccc3n12)c1ccc(F)cc1", "Potency": "inconclusive: 89.1 µM [inhibitor, single point]"},
      {"smiles": "CC(OC(=O)CNC(=O)c1sc2ccccc2c1Cl)C(=O)NC1(C#N)CCCCC1", "note": "(stereo not given)", "Potency": "inconclusive: 89.1 µM [inhibitor, single point]"},
      {"smiles": "CCOc1ccc(S(=O)(=O)NCCCN2CCOCC2)c2ccccc12", "Potency": "inactive"},
      {"smiles": "O=C(NCCN1CCOCC1)C(=O)NCc1ccc2c(c1)OCO2", "Potency": "inconclusive: 89.1 µM [inhibitor, single point]"},
      {"smiles": "CCc1ccccc1Nc1nc2cc(Cl)c(Cl)cc2nc1-n1nc(C)cc1C", "Potency": "inactive"},
      {"smiles": "COc1cc(C(=O)NC(=S)Nc2cccc3nc(C)ccc23)cc(OC)c1OC", "Potency": "inconclusive: 50.1 µM [inhibitor, partial curve, poor fit]"},
      {"smiles": "CCOCCCn1c(=N)c(C(N)=S)cc2c(=O)n3cccc(C)c3nc21", "Potency": "inconclusive: 79.4 µM [inhibitor, partial curve, poor fit]"},
      {"smiles": "Cc1ccc(NC(=O)CS(=O)CC(=O)Nc2ccc(N3CCOCC3)cc2)cc1Cl", "note": "(stereo not given)", "Potency": "inactive"},
      {"smiles": "CCOc1ccc(S(=O)(=O)N2CCOCC2)cc1NC(=O)CSC(=S)N1CCCC1", "Potency": "inconclusive: 31.6 µM [inhibitor, partial curve, poor fit]"},
      {"smiles": "COc1ccc(CNC(=O)c2ccc3c(c2)NC(=O)C(C)S3)cc1", "note": "(stereo not given)", "Potency": "inconclusive: 28.2 µM [inhibitor, full curve, poor fit]"},
      {"smiles": "COc1ccccc1-c1cc(C(F)(F)F)nc(S(C)(=O)=O)n1", "Potency": "inconclusive: 70.8 µM [inhibitor, partial curve, poor fit]"},
      {"smiles": "OCCNc1nc(SCc2ccccc2)nc2sc3c(c12)CCC3", "Potency": "inconclusive: 44.7 µM [inhibitor, partial curve, poor fit]"},
      {"smiles": "NC(CSC(c1ccccc1)(c1ccccc1)c1cccc2ccccc12)C(=O)O", "note": "(stereo not given)", "Potency": "inconclusive: 79.4 µM [inhibitor, partial curve, poor fit]"},
      {"smiles": "Cc1cccc(C(=O)N[C@H](C(=O)Nc2nc3ccc(S(C)(=O)=O)cc3s2)C(C)C)c1", "Potency": "inactive"},
      {"smiles": "Cc1oc(-c2cccc(Cl)c2)nc1CN1CCC(C(=O)NC2CC2)CC1", "Potency": "inactive"},
      {"smiles": "c1ccc(-c2nc3nc4ccccc4nc3n2Cc2ccco2)cc1", "Potency": "inconclusive: 100 µM [inhibitor, partial curve, poor fit]"},
      {"smiles": "Cc1sc2ncn(CC(=O)NCCCC(=O)N(C)Cc3ccccc3)c(=O)c2c1C", "Potency": "inconclusive: 56.2 µM [inhibitor, partial curve, poor fit]"},
      {"smiles": "CCCc1cc(=O)oc2cc(OCC(=O)Nc3ccc(S(N)(=O)=O)cc3)ccc12", "Potency": "inconclusive: 56.2 µM [inhibitor, partial curve, poor fit]"},
      {"smiles": "Cc1cc(N2CCN(c3nc(-c4ccccc4)cs3)CC2)c2ccccc2n1", "Potency": "inactive"},
      {"smiles": "O=C(N/N=C/c1ccc(N2CCOCC2)o1)c1cccc(F)c1", "Potency": "inconclusive: 44.7 µM [inhibitor, partial curve, poor fit]"},
      {"smiles": "Cc1cc(C)c2c(=O)[nH]c(SCC(=O)c3ccc(C)c(C)c3)nc2n1", "Potency": "inconclusive: 44.7 µM [inhibitor, partial curve, poor fit]"},
      {"smiles": "CCCCCCCC#Cc1ccccc1/C=N/S(=O)c1ccc(C)cc1", "note": "(stereo not given)", "Potency": "inconclusive: 28.2 µM [inhibitor, full curve, poor fit]"},
      {"smiles": "Oc1ccc2ccccc2c1C=NC12CN3CCN(CN(C3)C1)C2", "Potency": "inconclusive: 50.1 µM [inhibitor, partial curve, poor fit]"},
      {"smiles": "CCc1nnc(NC(=O)C2CC(=O)N(c3ccc4c(c3)OCCO4)C2)s1", "note": "(stereo not given)", "Potency": "inconclusive: 50.1 µM [inhibitor, partial curve, poor fit]"},
      {"smiles": "CCOC(=O)N1CCN(C(=O)c2ccc3c(c2)NC(=O)/C(=C\\c2ccc(OC)c(OC)c2)S3)CC1", "Potency": "inconclusive: 50.1 µM [inhibitor, partial curve, poor fit]"},
      {"smiles": "CCCC1(CCC)NC(=O)N(CC(=O)Nc2ccc(Cl)c(S(=O)(=O)N3CCOCC3)c2)C1=O", "Potency": "inactive"},
      {"smiles": "CC(C)(C)C(=O)NC(=S)Nc1cc(C(F)(F)F)ccc1N1CCOCC1", "Potency": "inconclusive: 56.2 µM [inhibitor, partial curve, poor fit]"},
      {"smiles": "O=C(O)c1ccccc1NC(=S)NC(NC(=O)c1ccccc1[N+](=O)[O-])C(Cl)(Cl)Cl", "note": "(stereo not given)", "Potency": "inconclusive: 70.8 µM [inhibitor, partial curve, poor fit]"},
      {"smiles": "CC1=C(C#N)C(=O)NC(=O)/C1=C\\c1ccc(-c2ccc(C)cc2[N+](=O)[O-])o1", "Potency": "inconclusive: 50.1 µM [inhibitor, partial curve, poor fit]"},
      {"smiles": "COC(=O)c1ccc2c(c1)C(C)(C)C(/C=C/c1ccccc1O)=[N+]2C", "Potency": "inconclusive: 44.7 µM [inhibitor, partial curve, poor fit]"},
      {"smiles": "CC(/C=C1\\SC(=S)N(NS(=O)(=O)c2ccccc2)C1=O)=C\\c1ccccc1", "Potency": "inconclusive: 89.1 µM [inhibitor, partial curve, poor fit]"},
      {"smiles": "CCOC(=O)c1c(-c2ccc(C)o2)csc1NC(=O)CN1CCOCC1", "Potency": "inconclusive: 50.1 µM [inhibitor, partial curve, poor fit]"},
      {"smiles": "C#CCOCCOCCOCCNc1nc(N2CCN(C(=O)CCCCCCCCCCNC(=O)Cn3cc(CCCCCN)nn3)CC2)nc(N2CCN(C(=O)CCCCCCCCCCNC(=O)Cn3cc(C[C@@H](C)O)nn3)CC2)n1", "Potency": "inconclusive: 20 µM [inhibitor, full curve, poor fit]"},
      {"smiles": "N[C@@H](CCC(=O)N[C@@H](CSN=O)C(=O)NCC(=O)O)C(=O)O", "Potency": "inconclusive: 50.1 µM [inhibitor, partial curve, poor fit]"},
      {"smiles": "COc1ccc(/C(C)=N/NS(=O)(=O)c2cc(C)ccc2C)c(OC)c1", "Potency": "inconclusive: 50.1 µM [inhibitor, partial curve, poor fit]"},
      {"smiles": "CC[n+]1c(C)sc2c(C)cc(C)cc21", "Potency": "inconclusive: 31.6 µM [inhibitor, full curve, poor fit]"},
      {"smiles": "OC(CNCC(c1ccc(Cl)cc1Cl)c1c[nH]c2ccccc12)c1ccccc1", "note": "(stereo not given)", "Potency": "inactive"},
      {"smiles": "Cc1ccc(CNC(=O)CCCn2c(=O)[nH]c3ccc(Br)cc3c2=O)cc1", "Potency": "inactive"},
      {"smiles": "COc1ccc2nc(C)cc(Nc3ccc(Cl)c(Cl)c3)c2c1", "Potency": "inconclusive: 89.1 µM [inhibitor, single point]"}
    ]}
  ]
}
